Some of the results follow.
Tested on: S. aureus RN4220
Assay: growth inhibition call (relative growth <= 0.2)
Settings: 50 µM

SMILES	growth inhibition call
C[C@@H]1CCCCO[C@H](CN(C)C(=O)Nc2cccc3ccccc23)[C@@H](C)CN([C@H](C)CO)C(=O)c2cc(NS(=O)(=O)c3cn(C)cn3)ccc2O1	inactive
c1ccc2nc(-c3cn[nH]c3)ccc2c1	inactive
C=CCCC(=O)O[C@@H](c1ccccc1)[C@@H](C)N(C)C(=O)[C@H](CC=C)NC(=O)OCC1c2ccccc2-c2ccccc21	inactive
CCCCCCCCCCCCC[N+](C)(C)Cc1ccccc1	active
C[C@H]1CN([C@@H](C)CO)C(=O)c2cccc(NC(=O)C3CCOCC3)c2O[C@@H]1CN(C)Cc1ccc(Oc2ccccc2)cc1	inactive
C[C@H]1CCCCO[C@@H](CN(C)C(=O)NC2CCCCC2)[C@@H](C)CN([C@@H](C)CO)C(=O)c2cc(NS(=O)(=O)c3ccc(F)cc3)ccc2O1	inactive
CC[C@H](C)[C@H](NC(=O)[C@H](Cc1ccc(O)cc1)NC(=O)[C@@H](NC(=O)[C@@H](CCCNC(=N)N)NC(=O)[C@@H](N)CC(=O)O)C(C)C)C(=O)N[C@@H](Cc1cnc[nH]1)C(=O)N1CCC[C@@H]1C(=O)N[C@H](Cc1ccccc1)C(=O)O	inactive
C[C@@H]1CN([C@H](C)CO)C(=O)c2cccc(NC(=O)c3cnccn3)c2O[C@@H]1CN(C)S(=O)(=O)c1ccc(Cl)cc1	inactive
O=C(C[C@H]1CC[C@H]2[C@@H](COC[C@@H](O)CN2C(=O)c2cnccn2)O1)NCc1ccc(Oc2ccccc2)cc1	inactive
C[C@@H]1CCCCO[C@@H](CN(C)Cc2ccc(C(F)(F)F)cc2)[C@@H](C)CN([C@H](C)CO)C(=O)c2cc(NC(=O)Cc3ccccc3)ccc2O1	inactive
